Measured values as given in PubChem BioAssay (Tox21).
Several values for one entry are separate records, joined by “and”; a condition that tells them apart may be missing. Equal values may be shown once. Inconclusive means that the source gave no clear call. Such entries were picked first, then a sample of the others. Potencies beside an inconclusive call are fits to weak or partial responses and may not hold up. Activity calls are given as the source filed them. Calls follow the shape of the dose curve; as a rule, active = well fitted cell-killing curve with a large enough effect in the repeat runs; inconclusive = weak or mixed curves, or effect the other way; inactive = flat fitted curve, though single readings scatter.

experiment: qHTS assay to identify small molecule antagonists of the androgen receptor (AR) signaling pathway using the MDA cell line - cell viability counter screen (AID 743041; also: nearly all actives have a fitted effect of over 45% in size); settings: MDA-kb2 viability, CellTiter-Fluor, 16 h, cells co-treated with R1881 androgen agonist; viability change, negative = cytotoxic: at 70.3 µM (top of the series) unless noted
Source text: National Center for Advancing Translational Sciences [NCATS]
NIH Chemical Genomics Center [NCGC]
U.S. Environmental Protection Agency [EPA]
National Institutes of Environmental Health Sciences [NIEHS]
National Toxicology Program [NTP]
U.S. Food and Drug Administration [FDA]
Androgen receptor (AR), a nuclear hormone receptor, plays a critical role in AR-dependent prostate cancer and other androgen related diseases. Endocrine disrupting chemicals (EDCs) and their interactions with steroid hormone receptors like AR may cause disruption of normal endocrine function as well as interfere with metabolic homeostasis, reproduction, developmental and behavioral functions. To identify the compounds that inhibit AR signaling, MDA-kb2 AR-luc cell line (from ATCC, deposited by Wilson et al.) was used to screen the Tox21 10K compound library. MDA-kb2 AR-luc cell line is human breast carcinoma cell line that was stably transfected with a luciferase reporter gene under control of the MMTV promoter containing response elements for both androgen receptor (AR) and glucocorticoid receptor (GR). The cytotoxicity of the Tox21 compound library against the MDA-kb2 AR-luc cell line was tested in parallel by measuring the cell viability using CellTiter-Fluor assay (Promega, Madison, WI) in the same wells.
Tox21 Assay Protocol Summary:
MDA-kb2 AR-luc cells were dispensed at 3,000 cells/4 uL/well of culture medium into white wall/solid-bottom 1536-well plates using a Multidrop Combi (ThermoFisher Scientific, Waltham, MA) dispenser. After the assay plates were incubated at a 37C and 0% CO2 for 5 hr, 23 nL of compounds dissolved in DMSO, positive controls or DMSO only was transferred to the assay plate by a Pintool station (Kalypsys, San Diego, CA), followed by addition of 1 uL of agonist (R1881) in culture medium using a Bioraptr Flying Reagent Dispenser (FRD) workstation (Beckman Coulter, Indianapolis, IN, USA). The plates were incubated at a 37C and 0% CO2 for 16 h. After 15.5 h incubation, 1uL of CellTiter-Fluor reagent (Promega) was added using a Bioraptr FRD to each plate for measuring cytotoxicity. The fluorescence intensity was quantified on a ViewLux plate reader (PerkinElmer, Shelton, CT) following 30 min incubation at 37C and 0% CO2.
% is scaled to controls: 0 for no effect and ±100 for the full control effect; potency is read from the fitted curve at half-maximal effect; tags tell the direction and shape of the fitted curve.

Compound | Potency | viability change, negative = cytotoxic
CO[C@@H]1[C@@H](OC)[C@H](C)[C@@](O)(CC(=O)O)O[C@H]1[C@H](C)[C@H]1O[C@@]2(CC[C@@](C)([C@H]3CC[C@@](C)([C@@H]4O[C@@H]([C@H]5O[C@](C)(O)[C@H](C)C[C@@H]5C)C[C@@H]4OC4C[C@H](OC)[C@@H](OC)[C@H](C)O4)O3)O2)C[C@H](O)[C@H]1C (stereo not given in full) | active: 1.06 µM | –
NC(=O)Nc1ccc(Cl)c(Cl)c1 | – | inactive: -2.65%
C[C@@H]1O[C@@H](OC[C@H]2O[C@@H](Oc3c(-c4ccc(O)c(O)c4)oc4cc(O)cc(O)c4c3=O)[C@H](O)[C@@H](O)[C@@H]2O)[C@H](O)[C@H](O)[C@H]1O | inconclusive: 61.6 µM [cytotoxic] | –
COC(=O)C1=C(C)NC(C)=C(C(=O)OCCN2CCN(C(c3ccccc3)c3ccccc3)CC2)C1c1cccc([N+](=O)[O-])c1 (stereo not given) | inconclusive: 21.1 µM [cytotoxic, partial curve, poor fit] | –
CCc1ccc2c(c1)C(=O)c1ccccc1C2=O | inconclusive: 68.6 µM [rising, single point] | –
CC(C)(C)c1csc(-c2cc3cc(OCc4ccccc4CC(=O)O)ccc3o2)n1 | inconclusive: 61.1 µM [cytotoxic, partial curve, poor fit] | –
O=S(=O)(O)c1ccc(N=Nc2c(O)ccc3ccccc23)cc1 | active: 27.3 µM | –
Cc1nccn1-c1ccc(Sc2cccc(C3(C(N)=O)CCOCC3)c2)cc1 | active: 15.4 µM | –
NC(=O)Nc1nc2ccccc2[nH]1 | – | inactive: 0.303%
CC[N+](CC)(CC)CCOc1ccc(/C=C/c2ccccc2)cc1 | inconclusive: 21.1 µM [cytotoxic, partial curve] | –
CC(=O)/C=C/c1ccco1 | inconclusive: 1.42 µM [rising, full curve, poor fit] | –
CCCCCCC[N+](CC)(CC)CCCCc1ccc(Cl)cc1 | inconclusive: 12.7 µM [cytotoxic, partial curve] | –
O=S1(=O)OC(c2ccc(O)cc2)(c2ccc(O)cc2)c2ccccc21 | inconclusive: 31.2 µM [cytotoxic, single point] and active: 48.6 µM and active: 61.1 µM | –
Cc1c(-c2ccc(O)cc2)n(Cc2ccc(OCCN3CCCCCC3)cc2)c2ccc(O)cc12 | inconclusive: 23.7 µM [cytotoxic, partial curve, poor fit] | –
COc1ccc(-c2cc(=S)ss2)cc1 | inconclusive: 33.5 µM [cytotoxic, partial curve, poor fit] | –
O=C(Oc1ccccc1)c1ccccc1C(=O)Oc1ccccc1 | inconclusive: 54.5 µM [cytotoxic, single point] | –
CC(C)CC(O)CC(C)C | inconclusive: 27.3 µM [rising, partial curve, poor fit] | –
Oc1cc(Cl)cc(Cl)c1Cl | inconclusive: 70.3 µM [cytotoxic, single point] | –
O=C1CCc2ccccc2O1 | inactive | –
O=C(CN1CCNCC1)NC1CCCCC1 | – | inactive: 3.2%

Compound | Potency | viability change, negative = cytotoxic
CC[C@H]1OC(=O)[C@H](C)[C@@H](O[C@H]2C[C@@](C)(OC)[C@@H](O)[C@H](C)O2)[C@H](C)[C@@H](O[C@@H]2O[C@H](C)C[C@H](N(C)C)[C@H]2O)[C@](C)(O)C[C@@H](C)CN(C)[C@H](C)[C@@H](O)[C@]1(C)O | inactive | –
Cc1c[nH]c2ccccc12 | – | inactive: -9.44%
CCOc1cccc(-n2cc(C(=O)N3CCN(c4cc(C(=O)O)c5ccccc5c4)CC3)nc2-c2ccc(C)cc2)c1 | inconclusive: 65.5 µM [cytotoxic, single point] | –
Nc1ccc(F)cc1 | – | inactive: -22.5% [at 95 µM]
Nc1ccc(C(=O)O)cc1 | inactive | –
Cc1cc(C)c(S(=O)(=O)O)cc1N=Nc1cc(S(=O)(=O)O)c2ccccc2c1O | active: 30.6 µM | –
CC1(C)CCC(C)(C)c2cc(NC(=O)c3ccc(C(=O)O)cc3)ccc21 | inconclusive: 33.5 µM [cytotoxic, single point] | –
O=C1NC(=O)[C@@H]2CC=CC[C@H]12 | – | inactive: -7.1%
CCCCCCCCCCCC(=O)OCC(O)CO (stereo not given) | inactive | –
O=C(c1ccc(O)cc1)c1ccc(Cl)cc1 | inconclusive: 70.1 µM [cytotoxic, partial curve, poor fit] | –
Cl[Si](Cl)(c1ccccc1)c1ccccc1 | – | inactive: 6.33% [at 95 µM]
COCCOC(=O)C1=C(C)NC(C)=C(C(=O)OC/C=C/c2ccccc2)C1c1cccc([N+](=O)[O-])c1 (stereo not given) | inconclusive: 33.5 µM [cytotoxic, partial curve, poor fit] | –
CS(=O)(=O)c1ccc([C@@H](C[C@H]2CCC(=O)C2)C(=O)Nc2cnccn2)cc1Cl | – | inactive: 2.99%
CC(CCc1ccc(O)cc1)NCCc1ccc(O)c(O)c1 (stereo not given) | inconclusive: 31.2 µM [cytotoxic, single point] | –
COc1cc(Nc2c(C#N)cnc3cc(OCCCN4CCN(C)CC4)c(OC)cc23)c(Cl)cc1Cl | active: 33.5 µM | –
O=C(O)c1cc(-c2ccccc2)nc2ccccc12 | – | inconclusive: 9.05% [at 95 µM]
CC1(C)NC(=O)N(c2ccc([N+](=O)[O-])c(C(F)(F)F)c2)C1=O | inconclusive: 29.8 µM [cytotoxic, single point] and active: 61.1 µM | –
Cc1ccc([N+](=O)[O-])cc1N | inactive | –
O=C1c2ccccc2C(=O)c2c1ccc(O)c2O | inconclusive: 19.7 µM [cytotoxic, partial curve] | –
CCCCCCCCCCCCCO | inconclusive: 31.7 µM [rising, full curve, poor fit] | –
